Structures can show the parent of a compound that is named as a salt. ± gives the standard deviation of the averaged measurements. The list shows a part of the results. Many values rest on one well or one pass, so single values are uncertain.
Assays:
Test in all cases: log2 surviving fraction relative to plate median (drug vs vehicle, or drug+dl922-947 vs dl922-947 alone); ovarian cancer lines: OVCAR4 is platinum-sensitive while Ov4Cis resists cisplatin and Ov4Carbo carboplatin; higher = more cell survival
Details in all cases: compound concentration: 10 uM, 192 h
[1] = system: OVCAR4
[2] = system: Ov4Carbo
[3] = system: Ov4Cis
[4] = dl922-947 oncolytic adenovirus co-treatment: MOI 10
[5] = dl922-947 oncolytic adenovirus co-treatment: none

SMILES | log2 surviving fraction [1, 4] | log2 surviving fraction [1, 5] | log2 surviving fraction [2, 4] | log2 surviving fraction [2, 5] | log2 surviving fraction [3, 4] | log2 surviving fraction [3, 5]
C[C@@]12C[C@@]3(O)O[C@@H](O1)[C@]1(COC(=O)c4ccccc4)[C@H]3C[C@@]12O[C@@H]1O[C@H](CO)[C@@H](O)[C@H](O)[C@H]1O [Paeoniflorin] | 0.261 ± 0.81 | 1.11 ± 0.76 | -0.66 | 0.601 | 1.41 | 1
Nc1ncn([C@H]2C[C@H](O)[C@@H](CO)O2)c(=O)n1 [Decitabine] | -3.01 ± 0.42 | -3.84 ± 4.8 | -1.62 | 0.651 | -3.21 | -5.4
COc1cc([C@@H]2c3cc4c(cc3[C@@H](O[C@@H]3O[C@@H]5CO[C@@H](C)O[C@H]5[C@H](O)[C@H]3O)[C@H]3COC(=O)[C@H]23)OCO4)cc(OC)c1O [Etoposide (VP-16)] | -3.89 ± 0.41 | -3.52 ± 0.33 | -4.18 | -5.94 | -6.5 | -9.56
CCC(=O)OCC(=O)[C@@]1(OC(=O)CC)[C@@H](C)C[C@H]2[C@@H]3CCC4=CC(=O)C=C[C@]4(C)[C@@]3(Cl)[C@@H](O)C[C@@]21C [Beclomethasone dipropionate] | 1.52 ± 0.13 | -0.994 ± 0.5 | 0.0193 | -2.63 | 0.879 | -0.327
O=C(O)c1cc(=O)c2c(OCC(O)COc3cccc4oc(C(=O)O)cc(=O)c34)cccc2o1 [Disodium Cromoglycate] | 0.396 ± 0.2 | 0.525 ± 1.3 | -0.585 | -0.652 | -0.592 | 1.02
CN(C)CCOC(C)(c1ccccc1)c1ccccn1 (stereo not drawn) [Doxylamine Succinate] | 0.701 ± 0.2 | -0.127 ± 0.68 | -0.839 | -0.0379 | 0.0359 | 0.787
Nc1ccc(/N=N/c2ccccc2)c(N)n1 [Phenazopyridine HCl] | 0.247 ± 0.74 | -0.852 ± 0.66 | 0.452 | 0.233 | 1.06 | 0.617
C[C@]12C/C(=C/O)C(=O)C[C@@H]1CC[C@@H]1[C@@H]2CC[C@@]2(C)[C@H]1CC[C@]2(C)O [Oxymetholone] | 0.144 ± 0.098 | -0.359 ± 0.29 | 1.11 | -4.28 | -0.18 | -0.538
CC(C)(O/N=C(\C(=O)N[C@@H]1C(=O)N2C(C(=O)[O-])=C(C[n+]3ccccc3)CS[C@H]12)c1csc(N)n1)C(=O)O [Ceftazidime Pentahydrate] | 0.108 ± 0.33 | 0.133 ± 0.22 | 0.814 | 0.112 | 0.386 | 0.376
C#C[C@]1(O)C=C[C@H]2[C@@H]3CCC4=CC(=O)CC[C@@H]4[C@H]3CC[C@@]21CC [Gestodene] | -0.442 ± 0.39 | -1.36 ± 0.028 | -0.61 | -1.96 | -0.363 | -0.625
COc1cc2nccc(Oc3ccc(NC(=O)C4(C(=O)Nc5ccc(F)cc5)CC4)cc3)c2cc1OC [XL-184 (Cabozantinib)] | -0.393 ± 3.1 | -2.53 ± 3.8 | 0.618 | 1.26 | -3.3 | -4.21
Nc1ccc(O)c(C(=O)O)c1 [Mesalamine (Lialda)] | 0.881 ± 0.26 | 0.0177 ± 0.025 | 1.23 | -0.644 | 0.193 | -0.0478
C[C@@H](CN1CC(=O)NC(=O)C1)N1CC(=O)NC(=O)C1 [Dexrazoxane Hydrochloride] | -0.118 ± 0.22 | 2.93 ± 3.4 | 0.896 | 0.654 | 0.289 | 0.144
Nc1ccn([C@@H]2O[C@H](CO)[C@@H](O)[C@H]2O)c(=O)n1 [Cytidine] | -0.361 ± 0.47 | 0.173 ± 1 | -1.19 | 1.02 | -0.984 | 0.446
Nc1nc(N)nc(-c2cc(Cl)ccc2Cl)n1 [Irsogladine] | 1.05 ± 0.64 | 0.825 ± 0.43 | 0.775 | -3.2 | 1.15 | 1.47
CNC(=C[N+](=O)[O-])NCCSCc1csc(CN(C)C)n1 [Nizatidine] | 0.0978 ± 1.3 | 0.0498 ± 0.14 | -0.534 | -1.98 | 0.263 | -0.105
C[C@@H]1CC(=O)NN=C1c1ccc(NN=C(C#N)C#N)cc1 [Levosimendan] | -0.182 ± 0.23 | 0.119 ± 0.61 | 1.2 | 0.796 | 2.02 | 0.377
N[C@@H]1CCCCN(c2c(F)cc3c(=O)c(C(=O)O)cn(C4CC4)c3c2Cl)C1 [Besifloxacin HCl (Besivance)] | -0.782 ± 2.1 | 0.0725 ± 1.7 | -1.58 | 0.274 | 0.524 | -1.87
CC(C)(C)c1ccc(C(O)CCCN2CCC(C(O)(c3ccccc3)c3ccccc3)CC2)cc1 (stereo not drawn) [Terfenadine] | -4.9 ± 5.2 | -0.565 ± 0.29 | -8.91 | -12.1 | -0.726 | -0.418
CNC[C@@H](O)c1ccc(O)c(O)c1 [L-Adrenaline (Epinephrine)] | -0.133 ± 0.041 | -0.525 ± 1.1 | -1.72 | -1.6 | -1.01 | -0.4
CN(CCOc1ccc(CC2SC(=O)NC2=O)cc1)c1ccccn1 (stereo not drawn) [Rosiglitazone maleate] | 1.31 ± 0.61 | 0.606 ± 0.6 | 0.708 | 0.271 | 0.326 | 0.165
CCOc1ccc2ccccc2c1C(=O)N[C@@H]1C(=O)N2[C@@H]1SC(C)(C)[C@@H]2C(=O)O [nafcillin sodium monohydrate] | 0.765 ± 0.088 | 0.651 ± 0.25 | -0.641 | 0.89 | 0.503 | 0.075

SMILES | log2 surviving fraction [1, 4] | log2 surviving fraction [1, 5] | log2 surviving fraction [2, 4] | log2 surviving fraction [2, 5] | log2 surviving fraction [3, 4] | log2 surviving fraction [3, 5]
OC(CCN1CCCCC1)(c1ccccc1)C1CC2C=CC1C2 (stereo not drawn) [Biperiden HCl] | 0.159 ± 0.52 | -1.63 ± 1 | 0.434 | 0.851 | -0.863 | 0.0818
NS(=O)(=O)c1cc2c(cc1Cl)NC(C(Cl)Cl)NS2(=O)=O (stereo not drawn) [Trichlormethiazide (Achletin)] | 0.97 ± 0.22 | 0.309 ± 0.049 | 0.572 | 0.457 | 0.283 | 0.319
CC(C)(C)CC(C)(C)c1ccc(OCCOCC[N+](C)(C)Cc2ccccc2)cc1 [Benzethonium chloride] | -10.2 ± 0.97 | -12.2 ± 6.3 | -8.67 | -12.1 | -8.83 | -15.4
COc1cc(OC)c(C(=O)CCCN2CCCC2)c(OC)c1 [Buflomedil HCl] | -0.493 ± 0.17 | -1.12 ± 0.1 | -0.664 | 0.309 | -0.17 | -2.65
Cc1ccnc(NS(=O)(=O)c2ccc(N)cc2)n1 [Sulfamerazine] | 0.27 ± 0.39 | -0.157 ± 1.1 | 0.254 | -0.932 | 0.237 | 0.41
Cc1nc2n(c(=O)c1CCN1CCC(c3noc4cc(F)ccc34)CC1)CCCC2 [Risperidone (Risperdal)] | -0.243 ± 0.033 | -0.22 ± 0.2 | 0.686 | -0.716 | -0.208 | -0.523
CC[C@H]1OC(=O)[C@H](C)[C@@H](O[C@H]2C[C@@](C)(OC)[C@@H](O)[C@H](C)O2)[C@H](C)[C@@H](O[C@@H]2O[C@H](C)C[C@H](N(C)C)[C@H]2O)[C@](C)(OC)C[C@@H](C)C(=O)[C@H](C)[C@@H](O)[C@]1(C)O [Clarithromycin (Biaxin, Klacid)] | 0.0431 ± 0.15 | -0.257 ± 1.4 | 0.359 | 0.207 | 0.24 | 1.54
CCC(C)n1ncn(-c2ccc(N3CCN(c4ccc(OCC5COC(Cn6cncn6)(c6ccc(Cl)cc6Cl)O5)cc4)CC3)cc2)c1=O (stereo not drawn) [Itraconazole (Sporanox)] | 0.6 ± 0.036 | 0.228 ± 0.19 | 0.113 | 0.518 | 0.657 | 0.359
C#Cc1cccc(Nc2ncnc3cc(OCCOC)c(OCCOC)cc23)c1 [Erlotinib HCl] | 0.395 ± 0.58 | -3.62 ± 4.5 | 0.668 | -2.43 | 1.06 | 0.707
CS(=O)(=O)c1ccc(C2=C(c3ccccc3)C(=O)OC2)cc1 [Rofecoxib (Vioxx)] | -0.226 ± 0.062 | 1.53 ± 0.26 | -0.138 | 0.268 | -0.00402 | -2.81
OCC(O)CN1CCN(c2ccccc2)CC1 (stereo not drawn) [Dropropizine] | 0.635 ± 0.037 | 0.931 ± 0.38 | 0.502 | -5.38 | 0.778 | 1.1
COC(=O)C1=C(C)NC(C)=C(C(=O)OC(C)C)C1c1cccc2nonc12 (stereo not drawn) [Isradipine (Dynacirc)] | 1.2 ± 0.83 | 0.293 ± 0.41 | 0.0796 | 0.125 | -0.235 | 0.183
CNC1CCCN(c2c(F)cc3c(=O)c(C(=O)O)cn(C4CC4)c3c2OC)C1 (stereo not drawn) [Balofloxacin] | 0.676 ± 0.59 | 1.03 ± 0.56 | -1.03 | 0.492 | 0.55 | 1.27
COc1cc2nc(N(C)CCCNC(=O)C3CCCO3)nc(N)c2cc1OC (stereo not drawn) [Alfuzosin hydrochloride (Uroxatral)] | 0.164 ± 0.63 | 0.258 ± 0.6 | -2.09 | -0.82 | 0.142 | 0.218
Cc1ccc(N(CC2=NCCN2)c2cccc(O)c2)cc1 [Phentolamine mesilate] | 0.588 ± 0.77 | 0.397 ± 0.64 | 0.147 | 0.459 | 0.283 | 0.467
CC1(C)[C@@H](OC(=O)CCC(=O)O)CC[C@]2(C)[C@H]3C(=O)C=C4[C@@H]5C[C@@](C)(C(=O)O)CC[C@]5(C)CC[C@@]4(C)[C@]3(C)CC[C@@H]12 [Carbenoxolone Sodium] | 0.427 ± 0.34 | 0.351 ± 0.42 | 1.08 | 1.69 | 0.00923 | -1.11
CC[C@@]1(O)C(=O)OCc2c1cc1n(c2=O)Cc2cc3ccccc3nc2-1 [Camptothecin] | -7.52 ± 0.97 | -9.78 ± 6.2 | -5.34 | -10.2 | -6.37 | -12.4
CN(Cc1cnc2nc(N)nc(N)c2n1)c1ccc(C(=O)N[C@@H](CCC(=O)O)C(=O)O)cc1 [Abitrexate (Methotrexate)] | -1 ± 0.29 | -1.02 ± 2.8 | -2.88 | -4.72 | 0.34 | -0.135
CC(C)NCC(O)COc1ccc(COCCOC(C)C)cc1 (stereo not drawn) [Bisoprolol] | -0.612 ± 0.44 | 0.981 ± 0.05 | 1.1 | 0.942 | -0.199 | -0.154
CCOC(=O)c1ccc(N)cc1 [Benzocaine] | -0.767 ± 0.33 | -0.0487 ± 0.29 | 0.191 | -0.224 | 0.675 | -0.778
Cc1nc(-c2ccc(OCC(C)C)c(C#N)c2)sc1C(=O)O [Febuxostat (Uloric)] | 0.362 ± 0.35 | 0.249 ± 0.2 | 0.888 | -0.453 | 0.344 | 0.057
